Paper PMC4336329 (PLoS ONE, 2015)
Screen size: about 310,000 compounds; about 14,000 (4.5%) showed an effect of 50% or more. Effects have a minus sign here. This is one part of the list.

Biological target: human ether-à-go-go-related gene (hERG) potassium channel (human, UniProt Q12809)
Assay: primary screen, population patch clamp on CHO cells stably expressing hERG
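Note: peak tail current of the secondary pulse compared with the same well before compound.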

Sequence of human ether-à-go-go-related gene (hERG) potassium channel (Q12809 whole entry, looked up): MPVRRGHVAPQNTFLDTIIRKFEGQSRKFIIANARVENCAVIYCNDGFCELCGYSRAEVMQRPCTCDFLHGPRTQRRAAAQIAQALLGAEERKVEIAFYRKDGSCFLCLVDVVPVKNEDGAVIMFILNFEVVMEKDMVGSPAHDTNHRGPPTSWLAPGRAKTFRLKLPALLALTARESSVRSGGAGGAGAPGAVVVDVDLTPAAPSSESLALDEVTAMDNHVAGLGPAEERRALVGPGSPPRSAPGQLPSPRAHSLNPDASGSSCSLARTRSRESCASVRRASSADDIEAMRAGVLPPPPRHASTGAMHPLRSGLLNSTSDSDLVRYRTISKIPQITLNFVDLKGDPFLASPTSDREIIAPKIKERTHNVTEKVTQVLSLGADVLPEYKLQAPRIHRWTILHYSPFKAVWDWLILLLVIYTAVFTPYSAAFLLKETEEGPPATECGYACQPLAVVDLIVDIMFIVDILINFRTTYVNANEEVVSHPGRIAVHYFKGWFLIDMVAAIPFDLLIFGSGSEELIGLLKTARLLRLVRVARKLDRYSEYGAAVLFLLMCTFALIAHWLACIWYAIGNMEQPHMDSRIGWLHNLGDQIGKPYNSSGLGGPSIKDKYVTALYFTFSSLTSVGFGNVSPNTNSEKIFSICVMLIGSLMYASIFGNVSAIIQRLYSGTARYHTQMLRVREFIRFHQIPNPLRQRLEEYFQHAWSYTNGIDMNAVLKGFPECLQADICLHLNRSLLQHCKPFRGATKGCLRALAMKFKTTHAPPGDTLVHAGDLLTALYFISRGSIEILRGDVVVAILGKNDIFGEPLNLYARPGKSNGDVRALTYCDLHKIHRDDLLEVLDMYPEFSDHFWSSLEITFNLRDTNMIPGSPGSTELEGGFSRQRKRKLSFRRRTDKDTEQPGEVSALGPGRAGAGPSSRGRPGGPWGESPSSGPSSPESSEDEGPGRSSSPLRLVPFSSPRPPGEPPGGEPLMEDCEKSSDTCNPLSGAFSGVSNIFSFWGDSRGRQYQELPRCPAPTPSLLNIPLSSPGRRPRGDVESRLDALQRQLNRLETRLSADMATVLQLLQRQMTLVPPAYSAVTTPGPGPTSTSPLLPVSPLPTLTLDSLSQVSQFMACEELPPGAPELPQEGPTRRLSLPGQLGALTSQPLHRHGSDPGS

Row | SMILES | hERG current change (%, negative = inhibition) at 10uM [%]
1 | FC(F)(F)c1cccc(Oc2ccc3c(C(F)(F)F)cc(C(F)(F)F)nc3n2)c1 | -0.334
2 | CCCN1CCN(C(=O)Cn2ncc3c([nH]c4ccc(C)cc43)c2=O)CC1 | 4.61
3 | COc1cccc(CNC(=O)c2c(C)nn(-c3ccccc3)c2C)c1 | 19.2
4 | COc1ccccc1N1CCN(C(=O)Cn2nc(C(F)(F)F)c3c2CCC3)CC1 | -5.1
5 | CCOC(=O)CSc1n[nH]c(=O)n1CCc1ccccc1 | 8.26
6 | COC(=O)Cn1c(CCS(=O)(=O)c2ccc(C)c(C)c2)nc2ccccc21 | -3.98
7 | CC(=O)NC(Cc1ccc(F)cc1)C(=O)NC1CCN(C(=O)Nc2ccccc2C)CC1 (centres unmarked) | 12.4
8 | COc1cc(/C=N/NC(=O)c2ccc(CSc3nncn3C)cc2)cc(OC)c1O | 31
9 | CC(C)CC(CO)N1CCN(C(=O)c2ccc(C(C)(C)C)cc2)CCC1=O (centres unmarked) | 7.77
10 | COC(=O)c1cc(Br)c(=O)n(Cc2cccnc2)c1 | 12.1
11 | CCOc1ccccc1NC(=O)c1cccc(NC2=NC3CS(=O)(=O)CC3S2)c1 (centres unmarked) | 7.35
12 | COC(=O)c1ccc(CNC(=O)CSc2nnc(COc3ccccc3)n2C)o1 | -13.8
13 | COc1ccc(-c2nc3ccc([N+](=O)[O-])cc3[nH]2)cc1 | 13.5
14 | Cc1nc(SCC(C)C)[nH]c(=O)c1Cc1ccccc1 | -0.329
15 | O=C(NC1CCCCC1)N1CCCc2ccccc21 | -3.2
16 | COc1cc(OC)c(/C=N/NC(=O)COc2cccc3cccnc23)c(OC)c1 | -4.3
17 | O=S(=O)(Cc1nnnn1-c1ccccc1)c1ccc(Cl)cc1 | 6.74
18 | O=C(c1cc(-c2cccs2)on1)N1CCCCC1 | -9.02
19 | Cc1cc(NC(=O)COC(=O)c2cc(S(=O)(=O)N(C)c3ccccc3)ccc2Cl)no1 | 0.766
20 | C=CCNC(=O)c1ccccc1NC(=O)c1ccccc1 | -14.3
21 | Cc1nn(CC(=O)N2CCN(C)CC2)c(=O)c2ccccc12 | -6.14
22 | C=CCn1c(SC)nnc1-c1cccc([N+](=O)[O-])c1 | -23.7
23 | CC/C(=N\NC(=O)CSc1ncccn1)c1ccc2c(c1)OCCO2 | 11.7

Row | SMILES | hERG current change (%, negative = inhibition) at 10uM [%]
24 | CON(C)S(=O)(=O)c1ccc2c(c1)N(Cc1ccc(C)cc1)C(=O)C1CCCN21 (centres unmarked) | 10.3
25 | COc1ccc(Cc2noc(CN3CCCC(C(=O)c4cccs4)C3)n2)cc1OC (centres unmarked) | 0.434
26 | CC(C)(C)c1cc(C(=O)O)nn1-c1ccccc1 | 14.5
27 | CCn1cc([N+](=O)[O-])c(C(=O)Nc2ccc(Br)cn2)n1 | -23.6
28 | CCOc1cc(/C=C2\C(=O)ON=C2c2ccccc2)ccc1OC | 8.39
29 | O=C(Nc1ccnn1C1CCN(CCCC2CCCC2)CC1)c1ccccc1 | -73.1
30 | CCOC(=O)c1c(NC(C)=O)sc2c1CCC(C=O)=C2Sc1ccccc1 | -0.361
31 | COc1ccc(NC(=O)COc2ccc(C(=O)c3ccc(F)cc3)cc2)cc1S(N)(=O)=O | -24.7
32 | COC(=O)N/N=C/c1ccc(Oc2ccccc2)cc1 | -19.4
33 | N#CCCN(C(=O)CSc1ncccn1)c1ccc2c(c1)OCCO2 | 0.457
34 | COc1ccc(-c2noc(CCC(=O)NCC3CCN(Cc4cccc(C)c4)CC3)n2)cc1 | -60.3
35 | CCCn1c(C(O)c2ccc(OC)cc2)nc2ccccc21 (centres unmarked) | 3.8
36 | Cc1cccc(N2CC(c3nc4ccccc4n3C)CC2=O)c1C (centres unmarked) | -31.4
37 | c1ccc(CSc2nnnn2-c2ccccc2)cc1 | -3.94
38 | COc1cc(OC)cc(-c2nnc(Sc3ccc(C=O)cc3[N+](=O)[O-])o2)c1 | 3.98
39 | Cc1ccc(C)c(Cn2c(C(=O)O)c(C=O)c3ccccc32)c1 | -13.8
40 | CC(=O)Nc1ccc(Nc2nc(-c3cc4ccccc4oc3=O)cs2)cc1 | -0.814
41 | Cc1cccc2cc(CN(Cc3cccs3)C(=S)NCc3ccco3)c(=O)[nH]c12 | -29.8
42 | Nc1cc(N)nc(SCC(=O)NNC(=O)c2ccc(Cl)cc2)n1 | 4.05
43 | CC1c2[nH]c3ccccc3c2C[C@H]2C(=O)N(CCCN(C)C)CC(=O)N12 (some centres unmarked) | 12.8
44 | Cc1ccc(/C=C/C(=O)OCC(=O)NCc2ccc(Cl)cc2)o1 | -13.9
45 | O=C1c2oc3ccccc3c(=O)c2C(c2cccc(O)c2)N1c1ccccn1 (centres unmarked) | -25.2
46 | COc1cc2c(cc1OC)CN(C(=S)Nc1ccccc1)CC2 | -7.19

Row | SMILES | hERG current change (%, negative = inhibition) at 10uM [%]
47 | CCOc1ccc(N2C(=O)CC(N3CCN(C(=O)c4ccco4)CC3)C2=O)cc1 (centres unmarked) | -9.91
48 | COCc1ccc(C(=O)N2CCCC(CNC(=O)c3ccc(F)cc3)C2)o1 (centres unmarked) | 2.5
49 | COc1ccc(-c2cc(C(F)(F)F)nc(SCC(=O)NCc3ccco3)n2)cc1OC | -7.74
50 | Cc1ccc(S(=O)(=O)N2CCC(C(=O)OCC(=O)NC3(C#N)CCCCC3)CC2)cc1C | -13.6
51 | COC(=O)c1ccc(CN2CCCC(C(=O)c3ccccc3OC)C2)cc1 (centres unmarked) | -43.1
52 | CN(C(=O)COC(=O)c1n[nH]c2ccccc12)c1ccccc1 | 2.74
53 | CSc1ccc(CN2CCC(C(=O)NCc3ccc(C)cc3)CC2)cc1.O=C(O)C(=O)O | -87.6
54 | CCCn1c(=S)[nH]c2sc3c(c2c1=O)CCCC3 | 3.06
55 | Cc1ccc(CS(=O)(=O)CCC(=O)NCCN2CCCC2)cc1 | -1.69
56 | CC(=O)N1c2ccc(S(=O)(=O)NCCC(=O)NCCc3ccc(Cl)cc3)cc2CC1C (centres unmarked) | 0.254
57 | COc1ccccc1-c1nnc(SCC(=O)N2CCC(C)CC2)o1 | -4.86
58 | O=C(NC1C2CC3CC(C2)CC1C3)c1ccc(Br)o1 (centres unmarked) | -13
59 | COc1ccc(/C=C(/NC(=O)c2ccc(OC)c(OC)c2)C(=O)NCCCn2ccnc2)cc1 | 11.5
60 | C/C(=C\c1ccco1)C1C(C#N)=C(N)Oc2n[nH]c(-c3ccc(C)cc3)c21 (centres unmarked) | 15.8
61 | Cc1snc(S(=O)(=O)/C(C#N)=N/Nc2cccc(C(F)(F)F)c2)c1C#N | 8.8
62 | COc1cccc(Oc2nnnn2-c2ccccc2)c1 | -4.26
63 | CSc1nc2ccc(S(N)(=O)=O)cc2s1 | 17.5
64 | CCc1[nH]nc2c1C(c1ccc(Br)s1)C(C#N)=C(N)O2 (centres unmarked) | -6.12
65 | CC(=O)Nc1ccc(NC(=O)c2cc(-c3cc(C)c(C)cc3O)n[nH]2)cc1 | 23.4
66 | Cc1coc2c1c(C)cc1oc(=O)c(CC(=O)NCC(=O)O)c(C)c12 | 24.3
67 | COc1cccc(CC2CC(=O)N(c3ccc4c(C)cc(=O)oc4c3)C2=O)c1 (centres unmarked) | -4.35
68 | CCC1(CC)NC(=O)N(CC(=O)OCC(=O)Nc2cc(OC)ccc2OC)C1=O | 5.62
69 | CSc1ccc(CNC(=O)C2Cc3cc(S(=O)(=O)N4CCCC4)ccc3N2C(C)=O)cc1 (centres unmarked) | -38.2

Row | SMILES | hERG current change (%, negative = inhibition) at 10uM [%]
70 | O=S(=O)(Nc1cc(F)ccc1F)c1cccc2nonc12 | -83.6
71 | COc1cccc(OCc2nc3ccccc3[nH]2)c1 | -4.57
72 | Cc1ccc(NC(=O)c2ccccc2NC(=O)c2cccnc2)cc1 | 14
73 | Cc1ccc(S(=O)(=O)Nc2cccc(C(=O)NCc3ccccn3)c2)cc1F | -13.9
74 | CCCCNC(=O)[C@H]1C[C@H]1[C@@H](O)[C@H](CO)NC(=O)[C@H](Cc1ccccc1)NC(=O)OC(C)(C)C | 17.6
75 | COc1cc(C2NC(=O)NC(C)=C2C(=O)OCC2CCCCC2)ccc1O (centres unmarked) | -0.392
76 | CCOC(=O)c1cc(NC(=O)Nc2ccc(Br)cc2)c(C)nc1C | 10.4
77 | COc1ccc(NC(=O)C2CCCN2C(=O)OCc2ccccc2)cc1 (centres unmarked) | -15.2
78 | CN(CC(=O)Nc1ccc(Cl)c(Cl)c1)C(=O)c1cccc2cccnc12 | -37.1
79 | COc1ccc(OCCCN2CCCC(C)C2)cc1 (centres unmarked) | -32
80 | CCCNC(=O)N1CCN(S(=O)(=O)c2ccc(C)c(C)c2)CC1 | -13.2
81 | Cc1ccccc1NC(=O)c1ocnc1C | 8.41
82 | CS(=O)(=O)N(CC(=O)NCc1cccnc1)C1CCCCC1 | 5.98
83 | O=C(CCS(=O)(=O)c1ccccc1)Nc1nncs1 | 8.6
84 | CC(=O)Nc1nc2n(n1)C(c1ccccc1)C=C(c1ccccc1)N2 (centres unmarked) | -25.8
85 | O=C(CNC(=O)c1ccc(Br)o1)NCc1ccccc1Cl | 1.15
86 | Cc1cc(Br)ccc1OCCn1ccnc1.O=C(O)C(=O)O | -3.76
87 | COc1ccc(NCC(=O)Nc2ccc(Cl)cc2C)c(OC)c1 | 0.738
88 | CC(=O)c1ccc(OCC(=O)NC(=O)NC2CCCCC2)cc1 | 0.648
89 | OCCC1CN(Cc2ccc(Oc3ncccn3)cc2)CCN1Cc1ccc(F)c(F)c1 (centres unmarked) | -23.6
